IC50 data for four molecules are collected here from patent publication EP0170820A2, “3-Amino-3,4,6-trideoxyglycals, processes for their preparation and anthracylines obtained with those glycals” (LABORATOIRES HOECHST S.A., priority 1984, dated 1986).

≈ marks a conversion by molar mass, not a printed value. Counter-ions that a name gives are not always drawn.

This assay relates to leukämische Zellen L 1210. The assay is described as follows: Colony formation test on L 1210 leukaemia cells in agarose (method of Hamburger and Salmon, modified). Conditions: Mus musculus, L1210, read-out: ED50(IC50) (µg/ml) kontin. Exposition.

Turning to `COc1cccc2c1C(=O)c1c(O)c3c(c(O)c1C2=O)C[C@@](O)(C(C)=O)C[C@@H]3O[C@H]1C[C@H](N2CCOCC2)C[C@H](C)O1` [Verbindung 24, 7-0-(3'-Morpholino-2',3',4',6'-tetradesoxy-α-L-threo-hexopyranosyl)daunomycinon·HCl], the IC50 was 0.0016 µg/mL. As for `COc1cccc2c1C(=O)c1c(O)c3c(c(O)c1C2=O)C[C@@](O)(C(=O)CO)C[C@@H]3O[C@H]1C[C@H](N)[C@H](O)[C@H](C)O1` [Adriamycin, reference compound], the figure is 0.02 µg/mL (≈ 0.0368 µM); as for `COc1cccc2c1C(=O)c1c(O)c3c(c(O)c1C2=O)C[C@@](O[C@H]1C[C@H](N)C[C@H](C)O1)(C(C)=O)C[C@@H]3O[C@H]1C[C@H](N)C[C@H](C)O1` [Verbindung 23b, Di-O-7,9-(3'-amino-2',3',4',6'-tetra-desoxy-α-1-threo-hexopyranosyl)-daunomycinon·HCl], 0.31 µg/mL.

On to `COc1cccc2c1C(=O)c1c(O)c3c(c(O)c1C2=O)C[C@@](O[C@H]1C[C@H](N)C[C@H](C)O1)(C(C)=O)C[C@@H]3O` [Verbindung 22b, 9-0-(3'-Amino-2',3',4',6'-tetradesoxy-α-L-threo-hexopyranosyl)-daunomycinon·HCl], for which the IC50 is 0.8 µg/mL.
